Test results from article PMC6212790.
This is one part of the list. At the low end of the ranking the order means little.

The sequences below were run against T1, GST-Rok-C97-191 (UniProt O34857) (assay: protein binding microarray). Conditions: Rok is a gene silencer of Bacillus subtilis; high values mean tight binding; most listed sequences are background and not binding sites; double strand, one strand shown.
T1 sequence: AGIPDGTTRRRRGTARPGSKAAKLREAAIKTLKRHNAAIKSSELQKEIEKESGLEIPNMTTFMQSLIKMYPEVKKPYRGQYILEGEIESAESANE
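Note: rank score from −0.5 (least bound) to 0.5 (best bound).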

| Sequence | binding signal |
| --- | --- |
| ACATGTTA | 0.144 E-score |
| CCGCTTGC | -0.231 E-score |
| CACTGGGG | -0.295 E-score |
| CATAACAA | 0.144 E-score |
| CGGGTCCC | -0.27 E-score |
| AAGCTACT | 0.195 E-score |
| AGGTCCAC | -0.153 E-score |
| CATCCTCA | -0.0453 E-score |
| GGAAGCAC | -0.182 E-score |
| ATGTCTAA | 0.116 E-score |
| GATCCGTA | -0.0215 E-score |
| AAGAACAC | -0.0223 E-score |
| ACAGATCG | -0.206 E-score |
| CACCCCCC | -0.32 E-score |
| GATGGGAC | -0.214 E-score |
| TCCTCGCA | -0.118 E-score |
| CTTAGACA | -0.239 E-score |
| GTGGATAA | 0.0571 E-score |
| CATCTAAG | -0.163 E-score |
| ACGGCACC | -0.0534 E-score |
| ACCGGCGT | -0.179 E-score |
| ATCTCTTC | -0.0214 E-score |
| CATTTCGC | 0.126 E-score |
| CCTAGTAG | 0.25 E-score |
| AGCCAGAA | -0.242 E-score |

| Sequence | binding signal |
| --- | --- |
| CTTATTCC | 0.00112 E-score |
| CTAAGGTA | 0.139 E-score |
| AACCATAG | 0.071 E-score |
| GCGGTGCC | -0.364 E-score |
| ATTGAAGG | 0.0532 E-score |
| ACGAGTCA | -0.245 E-score |
| AATGAGCA | -0.0827 E-score |
| CGGGACAC | -0.172 E-score |
| AAGGCATA | -0.0431 E-score |
| GAAATTTA | 0.258 E-score |
| AATACCTC | 0.101 E-score |
| ATAAAATA | 0.396 E-score |
| AGAACTAC | 0.369 E-score |
| AATATCCG | 0.0406 E-score |
| CGAGCGTA | -0.0883 E-score |
| ACAGCCAT | -0.0022 E-score |
| AATCATCC | -0.149 E-score |
| CTGCGTGC | -0.253 E-score |
| ACCTAGAC | 0.0761 E-score |
| GTCATAGA | -0.052 E-score |
| CCCGATGA | -0.22 E-score |
| CTTGCGCC | -0.355 E-score |
| ATATACAT | 0.288 E-score |
| CGCTCAGA | -0.179 E-score |
| AGGCTTGC | 0.12 E-score |

| Sequence | binding signal |
| --- | --- |
| AGAGTCAG | 0.0431 E-score |
| ACAAGCGC | -0.153 E-score |
| CCGATCGC | -0.155 E-score |
| TGACAAAA | 0.0786 E-score |
| AGTGAATC | -0.0993 E-score |
| AAGACTGC | -0.143 E-score |
| AGATGACA | 0.0696 E-score |
| ACTATTGC | 0.313 E-score |
| AAACGAAC | -0.191 E-score |
| TCCCCGGA | -0.157 E-score |
| CTGCAACC | -0.172 E-score |
| ACCCTTCT | -0.167 E-score |
| TTGCCCAA | -0.0422 E-score |
| CCATCCAA | -0.0599 E-score |
| ACCGTTTC | -0.153 E-score |
| CAAAGCTA | 0.11 E-score |
| CGATGAGC | -0.189 E-score |
| ATCGTACG | 0.123 E-score |
| ATCCGTGG | -0.298 E-score |
| GAAAAAGA | -0.0353 E-score |
| AGATTGCG | 0.146 E-score |
| GTCGTCCA | -0.198 E-score |
| GTAATCTA | 0.313 E-score |
| GGTGTAAA | 0.025 E-score |
| GACTGTCC | -0.22 E-score |

| Sequence | binding signal |
| --- | --- |
| CGTTAATA | 0.245 E-score |
| GACGTAGC | -0.0196 E-score |
| TCTAGGAA | 0.0695 E-score |
| CATTTAGA | -0.0716 E-score |
| GCCTACGC | -0.126 E-score |
| GCCCATCA | -0.301 E-score |
| ATGGGCAA | -0.0382 E-score |
| ACCAGGCG | -0.1 E-score |
| CGGTTCAA | -0.124 E-score |
| CGTAGTTC | 0.213 E-score |
| CAGCCGCA | -0.149 E-score |
| AGCTACAA | 0.209 E-score |
| CACCTAAG | -0.176 E-score |
| AAGGCGTG | -0.132 E-score |
| CTATTTAC | 0.349 E-score |
| CGGAAGAC | -0.236 E-score |
| GCACTACC | 0.0373 E-score |
| CAGTTACA | 0.29 E-score |
| ACGGTCAC | 0.0646 E-score |
| ACGTGTCG | -0.138 E-score |
| GCACTTGA | -0.0251 E-score |
| CTTTATGA | 0.139 E-score |
| AGTCGAGA | -0.0558 E-score |
| GGGGATAC | -0.179 E-score |
| AACAATGG | -0.0594 E-score |

| Sequence | binding signal |
| --- | --- |
| AAGTAATT | 0.297 E-score |
| CGCCTAAG | -0.134 E-score |
| ACGGTAAA | 0.286 E-score |
| AATACTTA | 0.234 E-score |
| CACTCGGA | -0.0385 E-score |
| GTCCGAGA | -0.151 E-score |
| ATAACTGA | 0.144 E-score |
| ATGCCAGA | -0.196 E-score |
| CCTTTCTA | 0.108 E-score |
| TTAGATAA | 0.139 E-score |
| GGCTATGA | -0.0286 E-score |
| ATAACGCA | 0.163 E-score |
| ACCGCGCG | 0.0116 E-score |
| ACTTTCAG | -0.0105 E-score |
| GTGATATA | 0.245 E-score |
| GGGCGACC | -0.415 E-score |
| CCGGCCCA | -0.223 E-score |
| AAAGTCGG | -0.062 E-score |
| AGCATTGG | -0.14 E-score |
| AACCCCCA | -0.393 E-score |
| CTCTATAA | 0.0363 E-score |
| ATTTTACA | 0.297 E-score |
| GAGCTATC | 0.164 E-score |
| AGCAGACG | 0.00301 E-score |
| AATATTCT | 0.347 E-score |

| Sequence | binding signal |
| --- | --- |
| CTATCTTC | 0.105 E-score |
| GCTGCACC | -0.237 E-score |
| TCGGCCCA | -0.114 E-score |
| CTTCCAAA | 0.0546 E-score |
| ACCTGTGA | -0.126 E-score |
| ACCTAATG | -0.0772 E-score |
| GCAGTCCA | -0.165 E-score |
| CCTCTGCA | -0.219 E-score |
| TTCATAAA | 0.229 E-score |
| CATTGACA | -0.0978 E-score |
| ATTAAGCA | -0.0638 E-score |
| CGTAAAGA | -0.00312 E-score |
| TGTTCCAA | -0.105 E-score |
| CGCCTTTA | -0.278 E-score |
| GCTCACCC | -0.231 E-score |
| AAATTGGT | 0.297 E-score |
| AACTGTCG | 0.0055 E-score |
| CAGCTTTA | 0.101 E-score |
| GGCAATTA | 0.168 E-score |
| CACAGAGG | -0.0801 E-score |
| GACCGCTA | 0.0642 E-score |
| AAGCCCCA | -0.204 E-score |
| ACGTTCAG | -0.147 E-score |
| TACGAGCA | 0.0492 E-score |
| ACGTGCTG | 0.00519 E-score |

| Sequence | binding signal |
| --- | --- |
| CATGAAGA | -0.0304 E-score |
| CTACGGCA | 0.0776 E-score |
| AAACAACA | -0.00748 E-score |
| CCGATGAA | -0.155 E-score |
| GGCTAGCC | -0.178 E-score |
| GGCTCCAC | -0.216 E-score |
| CCAGATAG | 0.179 E-score |
| AGGGCCGA | -0.305 E-score |
| AATTTGCA | 0.0951 E-score |
| ACGCACTG | 0.114 E-score |
| AGCTAGCT | 0.122 E-score |
| AGTCTATC | -0.0937 E-score |
| TAGGCAAA | 0.00802 E-score |
| CGTAGCTC | -0.0684 E-score |
| CGCAAAAA | 0.0321 E-score |
| GATCAGAC | 0.0437 E-score |
| CAAAAACC | 0.109 E-score |
| ATTAGAAA | 0.282 E-score |
| GACAGGAC | -0.14 E-score |
| CCTGGGCC | -0.0592 E-score |
| CGCGAAAG | -0.243 E-score |
| ATTGCAAT | 0.0829 E-score |
